{
  "source": "ChEMBL document CHEMBL4888484",
  "about": "“Replenishing the malaria drug discovery pipeline: Screening and hit evaluation of the MMV Hit Generation Library 1 (HGL1) against asexual blood stage Plasmodium falciparum ,using a nano luciferase reporter read-out” (2022)",
  "note": "Out of some 150,000 compounds screened, about 540 (0.36%) showed an effect of 50% or more. The list shows a part of the results.",
  "data": [
    {"tested_on": "Plasmodium falciparum", "assay": "Primary screen in NF54 nanoGlo assay, in single point, at 2uM, 72h; a lower Z score goes with more inhibition", "format": "functional, Erythrocyte", "conditions": "timepoint 72 hour", "units": {"% Inhibition": "%"}, "values": [
      {"smiles": "CO[C@@H](C)c1noc(CNc2ccc(F)cc2OCC2CC2)n1", "% Inhibition": -13, "Z score": 1.87},
      {"smiles": "CCCc1cc(C(=O)N2C[C@H](CO)[C@@H](CO)C2)no1", "% Inhibition": -14, "Z score": 1.9},
      {"smiles": "Cc1ccc2nc(C[C@H]3CN(CC(C)(C)C)CC[C@H]3CC(=O)O)[nH]c2c1", "% Inhibition": 2, "Z score": -0.23},
      {"smiles": "Cc1ccc(-c2c(NS(=O)(=O)c3ccccc3)c(O)nc3ccccc23)cc1", "% Inhibition": -11, "Z score": 1.24},
      {"smiles": "Cc1onc(N)c1S(=O)(=O)NC(=O)c1cnn(Cc2ccccc2)c1", "% Inhibition": -4, "Z score": 0.57},
      {"smiles": "CN1C[C@@H](O)CNS(=O)(=O)c2ccc(-c3cccnc3)cc2O[C@H]2CN(Cc3csnn3)C[C@H]21", "% Inhibition": -10, "Z score": 1.58},
      {"smiles": "Cc1cccc2c(Cc3nn4c(C)nnc4s3)noc12", "% Inhibition": -5, "Z score": 0.62},
      {"smiles": "CCCc1nc(C(=O)N2C[C@@H]3CC[C@H]2CN(Cc2[nH]cnc2C)C3)cs1", "% Inhibition": 4, "Z score": -0.62},
      {"smiles": "COC(=O)N1CCC[C@H](Nc2nc(C3CC3)ns2)C1", "% Inhibition": -20, "Z score": 1.77},
      {"smiles": "O=C(c1ccc(Cl)cn1)N1CC(O)CC1c1cc(F)ccc1F", "note": "(stereo unspecified)", "% Inhibition": -10, "Z score": 1.15},
      {"smiles": "Cc1nccn1[C@@H](C)CC(=O)NC(C)(C)C(=O)O", "% Inhibition": -19, "Z score": 1.81},
      {"smiles": "Cc1cscc1C(=O)Nc1ncccc1-c1ccccc1", "% Inhibition": -14, "Z score": 1.74},
      {"smiles": "OCc1nc2cc(-n3ccnc3-c3cc(-c4ccccc4)no3)ccc2[nH]1", "% Inhibition": -17, "Z score": 2.89},
      {"smiles": "CC(C)Nc1ncc(C(=O)N2CC(O)C2)cn1", "% Inhibition": -22, "Z score": 2.36},
      {"smiles": "CCN1CCN(C(=O)c2ccccc2N2CCC(NC(=O)c3ccc(Cl)cc3)CC2)CC1", "% Inhibition": -5, "Z score": 0.58},
      {"smiles": "CCN(Cc1cnc(NC[C@H]2CCCO2)nc1)C1CCOCC1", "% Inhibition": 6, "Z score": -1.2},
      {"smiles": "O=C(Cn1ncccc1=O)N1CC[C@H](OCC2CC2)C1", "% Inhibition": -5, "Z score": 0.76},
      {"smiles": "CN(c1ccc(NC(=O)N2CCN(S(C)(=O)=O)CC2)cc1F)C1CCCCC1", "% Inhibition": 29, "Z score": -3.86},
      {"smiles": "O=S(=O)(c1c(Cl)ccc(F)c1F)N1CC(N2CCCC2)C1", "% Inhibition": -7, "Z score": 1.15},
      {"smiles": "COc1ccc(-c2cc3nc(C)cc(N4CCC(C(=O)NCc5ccccc5)CC4)n3n2)cc1", "% Inhibition": 4, "Z score": -0.42},
      {"smiles": "CC[C@@H](CO)N(Cc1ccco1)C(=O)CCn1ccc(=O)[nH]c1=O", "% Inhibition": 15, "Z score": -1.92},
      {"smiles": "COC1(C(=O)NC[C@H]2CCCCN(Cc3ccccc3)C2)CCOCC1", "% Inhibition": -7, "Z score": 1.09},
      {"smiles": "CC(=O)N[C@H](C(=O)N1CCCC1)C(C)C", "% Inhibition": 33, "Z score": -0.41},
      {"smiles": "COc1cccc(C#CCOC(=O)c2c(C)noc2C)c1", "% Inhibition": 1, "Z score": -0.08},
      {"smiles": "Cc1nn(C)c(Cl)c1S(=O)(=O)N1CC(OC(C)C)C1", "% Inhibition": 2, "Z score": -0.43},
      {"smiles": "CC(C)(C)NC(=O)C(=O)NCc1cccnc1", "% Inhibition": -13, "Z score": 1.51},
      {"smiles": "CCc1ccc(C2CCC(C(=O)NCc3ccccc3)CN2C(C)=O)cc1", "note": "(stereo unspecified)", "% Inhibition": 0, "Z score": -0.01},
      {"smiles": "C[C@@H](C(=O)NC(=O)NC1CC1)N(C)Cc1ccc2c(c1)OCCO2", "% Inhibition": -3, "Z score": 0.58},
      {"smiles": "CN(CCCn1cccn1)C1CCN(c2nc3ccccc3o2)CC1", "% Inhibition": -3, "Z score": 0.43},
      {"smiles": "COc1ccc(NC(=O)Cn2cnc3nc(-c4cccnc4)ncc3c2=O)c(OC)c1", "% Inhibition": -10, "Z score": 1.01},
      {"smiles": "CC[C@H]1OCC[C@@H]1NC(=O)Nc1ccc(OC(F)F)nc1", "% Inhibition": -1, "Z score": 0.17},
      {"smiles": "Cc1cccc(C)c1CC(=O)NS(=O)(=O)C1CCCC1", "% Inhibition": -6, "Z score": 0.8},
      {"smiles": "CC[C@H](c1nc2ccccc2n1C)C(O)(c1ccccc1)c1ccccc1", "% Inhibition": 1, "Z score": -0.28},
      {"smiles": "CC(=O)N1CCC(CNC(=O)Nc2nnc(-c3cccs3)s2)CC1", "% Inhibition": 10, "Z score": -1.24},
      {"smiles": "COc1cccc(CN2CCN(c3ncnc4onc(C)c34)C[C@@H]2CCO)c1", "% Inhibition": 2, "Z score": -0.3},
      {"smiles": "Cc1ccc(-c2nn(CC(=O)N3CCN(C)CC3)c(=O)c3ccccc23)cc1S(=O)(=O)N1CCCCC1", "% Inhibition": -5, "Z score": 0.77},
      {"smiles": "Oc1ncccc1-c1nc2ccccc2[nH]1", "% Inhibition": 30, "Z score": -3.82},
      {"smiles": "CCc1ncc(CN(CC(=O)O)C(=O)c2ccc(F)c(C)c2)s1", "% Inhibition": -5, "Z score": 0.44},
      {"smiles": "N#Cc1nc(NC(=O)c2ccccc2F)[nH]c1C#N", "% Inhibition": 23, "Z score": -2.05},
      {"smiles": "Cc1csc(-c2nc3cc(F)c(Br)cc3c(=O)[nH]2)n1", "% Inhibition": -14, "Z score": 1.91},
      {"smiles": "FC(F)(F)C1CC(C2CC2)Nc2ccnn21", "note": "(stereo unspecified)", "% Inhibition": -30, "Z score": 3.49},
      {"smiles": "Cc1nc(CCNC(=O)c2nc(N)nc3c2CCCC3)nc2c1CCC2", "% Inhibition": -12, "Z score": 1.56},
      {"smiles": "CC(C)(C)NC(=O)NCc1ccnc(-c2ccco2)c1", "% Inhibition": -6, "Z score": 0.97}
    ]}
  ]
}
